# From PubChem BioAssay (NCATS)
# This list was built around the results that the source calls inconclusive (neither active nor inactive); the mix of calls is not that of the screen. For some assays here: Where the call is inconclusive, the potency comes from a doubtful curve fit. Activity calls are given as the source filed them. Unless noted, calls come from the whole dose curve; as a rule, active = well fitted curve in the direction sought with a large enough effect; inconclusive = small, poorly fitted or top-dose-only effect, or another doubt; inactive = no such curve, though single readings can be large; an effect the other way counts as inactive or inconclusive.
# Tests used:
# [1] = target: Cytochrome P450 2C9 (Homo sapiens) (UniProt P11712); test: qHTS Assay for Inhibitors and Substrates of Cytochrome P450 2C9 (AID 883); conditions: recombinant CYP2C9, luciferin-H luminescence, 60 min; activity change, negative = inhibition: at 11.4 µM (top of the series) unless noted; note: nearly all actives have a fitted effect of over 60% in size; note: potency is the fitted concentration of half-maximal effect; for activity change, negative = inhibition: % is set by controls: 0 for no effect and ±100 for the full control effect
# UniProt P11712, sequence (P11712 whole entry, looked up): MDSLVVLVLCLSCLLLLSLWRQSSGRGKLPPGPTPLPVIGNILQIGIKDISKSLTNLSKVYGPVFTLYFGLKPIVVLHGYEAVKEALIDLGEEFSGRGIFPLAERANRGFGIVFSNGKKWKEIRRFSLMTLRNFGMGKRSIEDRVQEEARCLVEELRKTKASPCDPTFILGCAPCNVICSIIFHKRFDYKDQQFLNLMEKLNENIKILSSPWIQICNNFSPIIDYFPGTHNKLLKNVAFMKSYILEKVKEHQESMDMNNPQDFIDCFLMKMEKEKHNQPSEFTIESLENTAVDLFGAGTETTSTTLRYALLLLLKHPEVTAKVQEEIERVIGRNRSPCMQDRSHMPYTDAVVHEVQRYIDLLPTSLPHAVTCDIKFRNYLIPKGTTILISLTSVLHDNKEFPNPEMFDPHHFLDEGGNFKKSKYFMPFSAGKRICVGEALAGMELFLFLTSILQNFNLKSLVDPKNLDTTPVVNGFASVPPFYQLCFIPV
# Procedure, shortened: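 10nM CYP2C9 + 100uM Luciferin-H (=KM), 25mM KPO4; cpd 10 min 37C; NADPH regen, 60 min 37C; stop/detect with P450 Glo-Buffer 20 min; luminescence. Norm. to 57uM sulphaphenazole as full inhibition.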
# [2] = target: Cytochrome P450 2C19 (Homo sapiens) (UniProt P33261); test: qHTS Assay for Inhibitors and Substrates of Cytochrome P450 2C19 (AID 899); conditions: recombinant CYP2C19, luciferin-H EGE luminescence; activity, negative = inhibition: at 11.4 µM (top of the series); note: nearly all actives have a fitted effect of over 60% in size; note: potency is the fitted concentration of half-maximal effect; for activity, negative = inhibition: top concentration of the series differs between compounds; % is set by controls: 0 for no effect and ±100 for the full control effect
# UniProt P33261, sequence (P33261 whole entry, looked up): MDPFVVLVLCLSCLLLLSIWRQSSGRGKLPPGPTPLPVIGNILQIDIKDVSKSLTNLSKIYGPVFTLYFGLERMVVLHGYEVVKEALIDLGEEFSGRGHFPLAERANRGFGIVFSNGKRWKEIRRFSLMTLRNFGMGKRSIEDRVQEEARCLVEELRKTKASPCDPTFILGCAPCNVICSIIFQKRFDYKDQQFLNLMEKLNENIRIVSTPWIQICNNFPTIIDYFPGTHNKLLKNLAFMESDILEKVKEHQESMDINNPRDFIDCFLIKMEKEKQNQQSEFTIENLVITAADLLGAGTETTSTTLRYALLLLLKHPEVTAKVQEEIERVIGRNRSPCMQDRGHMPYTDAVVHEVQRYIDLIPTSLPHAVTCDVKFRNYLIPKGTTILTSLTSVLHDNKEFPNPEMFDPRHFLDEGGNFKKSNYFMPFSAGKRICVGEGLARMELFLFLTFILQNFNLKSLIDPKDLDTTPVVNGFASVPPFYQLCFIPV
# Procedure, shortened: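 Luminescent read-out of luciferin formed from Luciferin-H EGE (10uM, equal to KM). Enzyme 5nM in 50mM KPO4; compound added, 10 min at 37C, then NADPH regenerating system for 60 min at 37C. Full inhibition defined by 57uM ketoconazole.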
# [3] = qHTS Assay for Identification of Small Molecule Agonists for Hypoxia Response Element Signaling Pathway (AID 914; active = well fitted activation curve with a large enough effect in the signal ratio, with a control signal flat, not every such curve was filed as active; inconclusive = small, poorly fitted or top-dose-only effect, or effect the other way, or a change in a side signal; the % refers to the signal ratio; note: potency is the fitted concentration of half-maximal effect; for activation: top concentration of the series differs between compounds; % of control where 0% means no effect); conditions: ME-180 HRE-bla reporter, beta-lactamase ratio, CoCl2, 17 h; activation: active compounds read high
# Procedure, shortened: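 Cells were plated overnight, pin-dosed with compound in a titration series, co-stimulated with EC50 CoCl2 and incubated 17 hours at 37 degrees Celsius. CCF4 substrate was then loaded, and AC50 values came from the 460nm/530nm ratio.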
# [4] = qHTS Assay for Identification of Small Molecule Antagonists for NFkB Signaling Pathway (AID 895; active = well fitted inhibition curve with a large enough effect in the signal ratio, with a control signal flat, not every such curve was filed as active; inconclusive = small, poorly fitted or top-dose-only effect, or effect the other way, or a change in a side signal; the % refers to the signal ratio; note: % is set by controls: 0 for no effect and ±100 for the full control effect); conditions: NFkB beta-lactamase reporter cells, FRET ratio 460/530, stimulated with 10 pM TNF alpha; activity change, negative = inhibition: at 38.3 µM (top of the series)
# Procedure, shortened: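 ME-180 NFkB-bla cells (beta-lactamase under NFkB response element), plated overnight, treated with compound then 10 pM TNF alpha (about EC50) for 5 hrs at 37 C. LiveBLAzer FRET read at 460/530 nm emission, 405 nm excitation.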
# [5] = qHTS Assay for Identification of Small Molecule Antagonists for Thrombopoietin (TPO) Signaling Pathway (AID 918); conditions: TPO-dependent cell signaling reporter, antagonist mode; activity change, negative = inhibition: at 38.5 µM (top of the series); note: nearly all actives have a fitted effect of over 60% in size
# Procedure, shortened: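 Murine Ba/F3 cells stably expressing human TPO receptor and a Glycoprotein IIb promoter–luciferase reporter were IL-3-starved overnight, treated with compounds plus TPO (26 pM final, its EC50) for 24 hrs at 37 C, then read by luminescence.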
# [6] = target: Muscarinic acetylcholine receptor M1 (Rattus norvegicus) (UniProt P08482); test: qHTS Assay for Antagonists of Acetylcholine Muscarinic M1 Receptor: Kinetic Measurement of Intracellular Calcium Response (AID 943); note: potency is the fitted concentration of half-maximal effect; nearly all actives have a fitted effect of over 75% in size
# UniProt P08482, sequence (P08482 whole entry, looked up): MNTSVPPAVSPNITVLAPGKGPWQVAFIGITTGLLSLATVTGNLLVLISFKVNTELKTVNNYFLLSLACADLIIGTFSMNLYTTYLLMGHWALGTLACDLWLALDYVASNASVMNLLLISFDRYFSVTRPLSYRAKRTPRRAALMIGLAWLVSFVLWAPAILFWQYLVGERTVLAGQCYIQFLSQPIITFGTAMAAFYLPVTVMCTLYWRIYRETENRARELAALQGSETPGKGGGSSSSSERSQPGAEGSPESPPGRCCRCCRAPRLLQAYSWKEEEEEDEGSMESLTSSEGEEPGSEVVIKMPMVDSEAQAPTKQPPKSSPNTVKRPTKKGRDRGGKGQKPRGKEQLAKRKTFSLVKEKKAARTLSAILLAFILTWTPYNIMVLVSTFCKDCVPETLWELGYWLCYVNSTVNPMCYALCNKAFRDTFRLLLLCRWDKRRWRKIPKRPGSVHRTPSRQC
# Procedure, shortened: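 CHO cells stably expressing rat M1 were loaded with no-wash Fluo-4 dye for 1 h at 37C, pre-incubated 10 min with compound, then challenged with EC80 carbachol (100 nM final); kinetic calcium read 4 min, peak/basal ratio.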
# [7] = target: Muscarinic acetylcholine receptor M1 (Rattus norvegicus) (UniProt P08482); test: qHTS Assay for Antagonists of Acetylcholine Muscarinic M1 Receptor: Measurement of IP-One Response (AID 944); note: nearly all actives have a fitted effect of over 75% in size
# [8] = target: Cytochrome P450 2D6 (Homo sapiens) (UniProt P10635); test: qHTS Assay for Inhibitors and Substrates of Cytochrome P450 2D6 (AID 891);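 note: luciferin methyl ether substrate demethylated by CYP2D6 with NADPH regeneration; potency is the fitted concentration of half-maximal effect; nearly all actives have a fitted effect of over 60% in size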
# UniProt P10635, sequence (P10635 whole entry, looked up): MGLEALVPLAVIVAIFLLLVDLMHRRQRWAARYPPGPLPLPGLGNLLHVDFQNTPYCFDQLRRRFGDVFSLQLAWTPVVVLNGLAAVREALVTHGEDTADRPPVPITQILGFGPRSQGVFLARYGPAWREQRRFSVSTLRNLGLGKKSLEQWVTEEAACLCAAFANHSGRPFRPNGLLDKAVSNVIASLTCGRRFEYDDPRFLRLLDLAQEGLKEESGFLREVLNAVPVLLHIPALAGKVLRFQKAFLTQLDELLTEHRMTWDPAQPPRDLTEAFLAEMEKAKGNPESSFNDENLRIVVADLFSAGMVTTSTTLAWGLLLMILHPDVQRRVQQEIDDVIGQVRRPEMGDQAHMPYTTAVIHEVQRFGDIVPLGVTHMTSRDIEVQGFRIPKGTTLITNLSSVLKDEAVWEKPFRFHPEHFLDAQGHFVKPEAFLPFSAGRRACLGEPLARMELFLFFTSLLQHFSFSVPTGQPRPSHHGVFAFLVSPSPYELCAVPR
# Procedure, shortened: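 Human CYP2D6 (5 nM) with 30 uM Luciferin-ME EGE (at Km) in 100 mM KPO4, compound preincubated 10 min, then NADPH regeneration system for 60 min at room temperature. Luciferin read by luminescence; normalized to 1.43 uM quinidine.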
# Tags give direction and shape of the fitted curve or compound fluorescence and quenching.
structure (smiles),measurement,setting,value
COC(=O)NC(/C(C(=O)OC)=C(\C)NCc1ccccc1)c1ccc(F)cc1 (centres undefined),Potency,[1],active: 2.51 µM
same,Potency,[2],active: 0.251 µM
c1ccc2c(c1)-c1nc3ccccc3cc1[C@H]2N1CCOCC1,Potency,[1],"inconclusive: 6.31 µM [inhibitor, single point]"
same,Potency,[2],"inconclusive: 3.16 µM [inhibitor, single point]"
CCCCCC1=C2CNC(CC(C)C)(C(=O)OC)C=C2C(C)C1=O (centres undefined),Potency,[1],active: 3.16 µM
same,Potency,[2],"inconclusive: 6.31 µM [inhibitor, partial curve, poor fit]"
O=C(O)c1cc(-c2ccc(-c3ccc(-c4cc(C(=O)O)c5cc(Cl)ccc5n4)cc3)cc2)nc2ccc(Cl)cc12,Potency,[1],"inconclusive: 3.16 µM [inhibitor, single point]"
same,Potency,[3],"inconclusive: 2.51 µM [inhibitor, single point]"
Oc1cc(CN2COc3ccccc32)c(O)cc1CNC1CCCCC1,Potency,[1],"inconclusive: 6.31 µM [inhibitor, single point]"
same,Potency,[2],"inconclusive: 1.26 µM [inhibitor, partial curve]"
CCCNC(=O)OC[C@@H]1O[C@H](CCO/N=C(\C)CCC(=O)OC[C@@H]2O[C@H](c3ccccc3)C=C[C@@H]2Oc2ccc(OC)cc2)C=C[C@@H]1Oc1ccc(OC)cc1,Potency,[1],"inconclusive: 3.98 µM [inhibitor, single point]"
same,Potency,[2],"inconclusive: 0.0794 µM [inhibitor, partial curve, poor fit]"
same,activation,[3],inconclusive: -13.5%
C/C(CCC(=O)OC[C@@H]1O[C@H](C#Cc2ccccc2)C=C[C@@H]1Oc1ccc(C)cc1)=N/O[C@@H](C)c1cn([C@H](CO)Cc2ccccc2)nn1,Potency,[1],"inconclusive: 2.51 µM [inhibitor, partial curve]"
same,Potency,[2],"inconclusive: 0.0079 µM [inhibitor, single point]"
O=C(CON1C(=O)c2ccccc2C1=O)c1ccccc1,Potency,[1],"inconclusive: 6.31 µM [inhibitor, single point]"
same,activation,[3],inactive: -13.1%
COC(=O)C/C=C\[C@@H](C)[C@@H](/C=N\O[C@@H](C)c1cc(-c2c(C)cc(C)cc2C)no1)NS(=O)(=O)c1ccc(C)cc1,Potency,[1],active: 2.51 µM
same,Potency,[3],"inconclusive: 0.158 µM [inhibitor, partial curve]"
O=C1C[C@H](c2ccccc2)[C@@H](c2ccc(Br)cc2)O1,Potency,[1],"inconclusive: 3.16 µM [inhibitor, single point]"
same,activation,[3],inconclusive: -1.69%
C/C(CCN1CCc2nc(-c3ccccc3)c(-c3ccccc3)cc2C1)=N\O[C@@H](C)c1cc(-c2c(C)cc(C)cc2C)no1,Potency,[1],"inconclusive: 0.316 µM [inhibitor, full curve, poor fit]"
same,activation,[3],inactive: 20.9%
C=CCOC(=O)C(C(=O)CC)C(NC(=O)OC)c1ccc(F)cc1 (centres undefined),Potency,[1],inactive
same,Potency,[2],inactive
O=C(O)CSC1=NCCN1,Potency,[1],inactive
same,Potency,[2],inactive
CC(CCC(=O)O)(c1cc(Br)c(O)c(Br)c1)c1cc(Br)c(O)c(Br)c1,Potency,[1],active: 3.16 µM
same,Potency,[3],"inconclusive: 3.16 µM [inhibitor, single point]"
CC(C)(Oc1ccc(-c2cccc3ccccc23)cc1)C(=O)O,Potency,[1],"inconclusive: 0.398 µM [inhibitor, partial curve]"
same,activation,[3],inactive: -19.2%
CSc1nc(N)c2ncn([C@@H]3O[C@@H](COP(=O)(O)OP(=O)(O)OP(=O)(O)O)[C@@H](O)[C@H]3O)c2n1,Potency,[1],inactive
same,"activity change, negative = inhibition",[4],inconclusive: -30.8%
same,"activity change, negative = inhibition",[5],inconclusive: 7.52% [phenotype inactive]
same,Potency,[6],"inconclusive: 0.0355 µM [inhibitor, full curve, poor fit]"
same,Potency,[7],inactive
COc1cccc([C@@H]2Oc3ccc(OC)cc3/C(=N/OC[C@@H](C)[C@H](OCc3ccccc3)C(C)C)[C@@H]2O)c1,Potency,[1],active: 3.98 µM
same,activation,[3],inconclusive: 0.522%
O=C1CN2CCN(CC2)CC(=O)Nc2ccc(cc2)S(=O)(=O)c2ccc(cc2)NC(=O)CN2CCN(CC2)CC(=O)Nc2ccc(cc2)S(=O)(=O)c2ccc(cc2)N1,Potency,[1],"inconclusive: 0.398 µM [inhibitor, full curve, poor fit]"
same,activation,[3],inconclusive: 20.2%
Nc1ccccc1SCc1csc(-c2ccc(Cl)cc2)n1,Potency,[1],"inconclusive: 5.01 µM [inhibitor, single point]"
same,Potency,[8],"inconclusive: 3.16 µM [inhibitor, single point]"
same,Potency,[2],active: 0.501 µM
same,Potency,[3],"inconclusive: 3.16 µM [inhibitor, single point]"
